Laboratory results as given in the supplement of paper PMC6089552.
The whole screen tested about 3,200 compounds, of which about 300 (9.4%) showed activity. Only a part is listed here, and it is no random draw.

Tested on: A673/TR/shEF
Experiment: cell viability (LOESS-normalised, relative to median of negative controls) (log2 ratio); higher = more viable cells (less compound effect), active = hit call of the paper (over 3 MAD below the median)
Details: treatment time: 72 h
Method in brief: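 For three days, A673/TR/shEF Ewing sarcoma cells in 384-well plates (1,500 per well) were treated with library compounds at two or more concentrations or with DMSO controls, after doxycycline had been added or withheld 24 h beforehand to induce EWS-FLI1 shRNA knockdown. Viability was read by CellTiter-Glo luminescence on an Envision reader. The data were LOESS-corrected per plate, divided by the median of negative controls and log2-transformed.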

[1] = 2.5 µM, library screen: screen1, EWS-FLI1 expression: high (no doxycycline)
[2] = 25 µM, library screen: screen1, EWS-FLI1 expression: high (no doxycycline)
[3] = 0.103 µM, library screen: screen3, EWS-FLI1 expression: high (no doxycycline)
[4] = 0.103 µM, library screen: screen3, EWS-FLI1 expression: low (doxycycline-induced shRNA knockdown)
[5] = 0.25 µM, library screen: screen1, EWS-FLI1 expression: high (no doxycycline)
[6] = 0.25 µM, library screen: screen1, EWS-FLI1 expression: low (doxycycline-induced shRNA knockdown)
[7] = 0.25 µM, library screen: screen2, EWS-FLI1 expression: high (no doxycycline)
[8] = 0.25 µM, library screen: screen2, EWS-FLI1 expression: low (doxycycline-induced shRNA knockdown)
[9] = 0.308 µM, library screen: screen3, EWS-FLI1 expression: high (no doxycycline)
[10] = 0.308 µM, library screen: screen3, EWS-FLI1 expression: low (doxycycline-induced shRNA knockdown)
[11] = 0.926 µM, library screen: screen3, EWS-FLI1 expression: high (no doxycycline)
[12] = 0.926 µM, library screen: screen3, EWS-FLI1 expression: low (doxycycline-induced shRNA knockdown)
[13] = 2.5 µM, library screen: screen1, EWS-FLI1 expression: low (doxycycline-induced shRNA knockdown)
[14] = 2.5 µM, library screen: screen2, EWS-FLI1 expression: high (no doxycycline)
[15] = 2.5 µM, library screen: screen2, EWS-FLI1 expression: low (doxycycline-induced shRNA knockdown)
[16] = 2.8 µM, library screen: screen3, EWS-FLI1 expression: high (no doxycycline)
[17] = 2.8 µM, library screen: screen3, EWS-FLI1 expression: low (doxycycline-induced shRNA knockdown)
[18] = 8.3 µM, library screen: screen3, EWS-FLI1 expression: high (no doxycycline)
[19] = 8.3 µM, library screen: screen3, EWS-FLI1 expression: low (doxycycline-induced shRNA knockdown)
[20] = 25 µM, library screen: screen3, EWS-FLI1 expression: high (no doxycycline)
[21] = 25 µM, library screen: screen3, EWS-FLI1 expression: low (doxycycline-induced shRNA knockdown)

Measured: cell viability (log2)

N#CC(C#N)=C(N)/C(C#N)=C/c1cc(O)c(O)c(O)c1
active: [1] -0.312 | [2] -0.175

CCCSc1ccc2nc(NC(=O)OC)[nH]c2c1
active: [5] -0.206 | [1] -1.99 | [13] -1.04 | [16] -0.524 | [18] -1.81 | [19] -0.886 | 25 µM, library screen: screen2, EWS-FLI1 expression: high (no doxycycline) -1.74 | 25 µM, library screen: screen2, EWS-FLI1 expression: low (doxycycline-induced shRNA knockdown) -0.157 | [20] -2.99 | [21] -1.16
inactive: 0.025 µM, library screen: screen2, EWS-FLI1 expression: high (no doxycycline) 0.0864 | 0.025 µM, library screen: screen2, EWS-FLI1 expression: low (doxycycline-induced shRNA knockdown) 0.0115 | [3] 0.197 | [4] -0.0327 | [6] -0.0499 | [7] 0.0348 | [8] 0.051 | [9] 0.0506 | [10] 0.123 | [11] 0.0609 | [12] 0.0788 | [14] 0.158 | [15] 0.0631 | [17] 0.00738

O=C(c1ccc(O)cc1)c1ccc(O)cc1O
inactive: [5] 0.0946 | [6] 0.0115 | [1] 0.164 | [13] 0.0705

CCN(CC)CCCCCCCCOC(=O)c1cc(OC)c(OC)c(OC)c1
inactive: [7] 0.168 | [8] 0.124 | [14] 0.116 | [15] 0.102

CC(C)(C)NCC(O)COc1cccc2[nH]c(=O)[nH]c12 (stereo unspecified)
inactive: [7] 0.0589 | [8] 0.059 | [14] 0.0885 | [15] 0.0495

O=C(c1ccccc1)c1ccc2n1CCC2C(=O)O (stereo unspecified)
inactive: [3] -0.0478 | [4] 0.0104 | [5] 0.0623 | [6] -0.0725 | [7] 0.148 | [8] 0.14 | [9] 0.134 | [10] 0.145 | [11] 0.136 | [12] 0.0768 | [1] 0.0968 | [13] 0.0484 | [14] 0.129 | [15] 0.15 | [16] 0.0954 | [17] 0.0231 | [18] 0.0775 | [19] 0.1 | [20] 0.0572 | [21] 0.0838

COc1c(N2CCNC(C)C2)c(F)cc2c(=O)c(C(=O)O)cn(C3CC3)c12 (stereo unspecified)
inactive: [3] -0.0448 | [4] 0.0614 | [9] 0.0837 | [10] 0.0631 | [11] -0.0168 | [12] 0.0143 | [16] 0.0878 | [17] 0.0825 | [18] 0.111 | [19] 0.0829 | [20] 0.159 | [21] 0.0854

OCc1ccccc1O
inactive: [5] 0.052 | [6] 0.0788 | [1] 0.134 | [13] 0.143

COc1ccc(S(=O)(=O)N(CCO)c2ccccc2CN(C)C/C=C/c2ccc(Cl)cc2)cc1
active: [1] -0.284 | [2] -1.32 | 25 µM, library screen: screen1, EWS-FLI1 expression: low (doxycycline-induced shRNA knockdown) -0.531
inactive: 0.025 µM, library screen: screen1, EWS-FLI1 expression: high (no doxycycline) 0.202 | 0.025 µM, library screen: screen1, EWS-FLI1 expression: low (doxycycline-induced shRNA knockdown) -0.0138 | [5] 0.226 | [6] 0.0804 | [13] -0.0574

CC(C)CCCC(C)C1CCC2C3CCC4CC(=O)CCC4(C)C3CCC12C (stereo unspecified)
inactive: [5] 0.027 | [6] 0.0292 | [1] 0.169 | [13] 0.017

CC1(C)CC2C1CCC1(C)OC2(C)CCC1O (stereo unspecified)
inactive: [5] 0.00397 | [6] -0.0939 | [1] 0.0714 | [13] 0.0268

CC1(C)C(=O)[C@@H]2C[C@@]3(O)C4=CC(=O)O[C@@H](c5ccoc5)[C@]4(C)CCC3C(C)(C2=O)[C@H]1CC(=O)O (stereo partly specified)
inactive: [5] 0.0688 | [6] 0.13 | [1] 0.086 | [13] 0.0264

COc1cccc(C(=O)NCCN2CCN(c3ccc(Cl)cc3)CC2)c1
inactive: [7] 0.184 | [8] 0.2 | [14] 0.0849 | [15] 0.0867

CC(=O)Oc1ccc2c(c1)CCC1C2CCC2(C)C(=O)CCC12 (stereo unspecified)
inactive: [5] 0.0434 | [6] -0.0193 | [1] 0.146 | [13] 0.0428

NS(=O)(=O)c1ccc(-c2ccc(/C=C3/SC(=S)N(C4CCCCC4)C3=O)o2)cc1
inactive: [5] 0.109 | [6] 0.0623 | [1] 0.167 | [13] -0.0331

CN1Cc2c(N)cccc2C(c2ccccc2)C1 (stereo unspecified)
inactive: [7] 0.0977 | [8] 0.0671 | [14] 0.0792 | [15] 0.0734

CN(C)C/C=C/C(=O)Nc1cc2c(Nc3ccc(F)c(Cl)c3)ncnc2cc1O[C@H]1CCOC1
active: [20] -1.35 | [21] -1

CSCCC(NC=O)C(=O)NC(CC(C)C)C(=O)NC(Cc1ccccc1)C(=O)O (stereo unspecified)
inactive: [5] 0.0125 | [6] 0.0891 | [1] 0.0974 | [13] 0.0808
